{
  "source": "paper PMC6919601",
  "about": "“Identification of Plasmodium dipeptidyl aminopeptidase allosteric inhibitors by high throughput screening” (PLoS ONE, 2019)",
  "note": "About 230 (0.21%) of roughly 110,000 compounds showed an effect of 50% or more. The list shows a part of the results.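 Note: 30 min substrate incubation versus DMSO and 10 µM JCP410 controls.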",
  "data": [
    {"molecular_target": "DPAP1 (Plasmodium falciparum, UniProt Q8IIJ9)", "sequence (Q8IIJ9 whole entry, looked up)": "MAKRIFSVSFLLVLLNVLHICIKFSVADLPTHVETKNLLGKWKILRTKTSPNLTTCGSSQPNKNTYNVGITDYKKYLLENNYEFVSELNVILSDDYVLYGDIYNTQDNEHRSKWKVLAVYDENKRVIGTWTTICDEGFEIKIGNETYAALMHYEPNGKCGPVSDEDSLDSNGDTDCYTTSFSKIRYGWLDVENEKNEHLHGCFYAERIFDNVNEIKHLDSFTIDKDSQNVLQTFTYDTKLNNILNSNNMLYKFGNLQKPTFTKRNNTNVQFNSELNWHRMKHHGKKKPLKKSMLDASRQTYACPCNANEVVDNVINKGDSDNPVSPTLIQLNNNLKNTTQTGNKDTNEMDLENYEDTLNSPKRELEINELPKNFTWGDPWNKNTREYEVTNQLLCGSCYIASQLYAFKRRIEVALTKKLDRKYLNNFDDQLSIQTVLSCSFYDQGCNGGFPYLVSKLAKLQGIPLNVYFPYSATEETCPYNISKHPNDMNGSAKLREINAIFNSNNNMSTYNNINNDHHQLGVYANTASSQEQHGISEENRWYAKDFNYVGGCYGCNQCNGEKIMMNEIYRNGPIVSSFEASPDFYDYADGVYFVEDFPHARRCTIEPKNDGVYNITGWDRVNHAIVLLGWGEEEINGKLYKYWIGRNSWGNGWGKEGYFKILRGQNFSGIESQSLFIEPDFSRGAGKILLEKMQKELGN", "assay": "primary screen, percent inhibition; read by cleavage of a fluorogenic dipeptide substrate; higher = more effect of the substance", "parameters": "species or system P. falciparum D10 trophozoite lysates; single well", "units": {"% Inhibition @ 10 uM": "%"}, "values": [
      {"compound": "COc1ccccc1C(=O)NCCSCc1ccccc1Cl", "% Inhibition @ 10 uM": -3},
      {"compound": "CC1CCN(C(=O)C(CCS(C)(=O)=O)N2Cc3ccccc3C2=O)CC1", "note": "(stereo not drawn)", "% Inhibition @ 10 uM": -0.769},
      {"compound": "COc1ccc(NCc2ccc(SC)cc2)cc1OC", "% Inhibition @ 10 uM": -2.02},
      {"compound": "CCN(CC)C(=O)C1CCCN(Cc2cc(F)ccc2F)C1", "note": "(stereo not drawn)", "% Inhibition @ 10 uM": -1.41},
      {"compound": "O=C(NCc1ccc(C(=O)NC2CCCC2)cc1)c1cccc(Br)c1", "% Inhibition @ 10 uM": 1.07},
      {"compound": "CCc1ccc(Oc2nc3c(C)cccn3c(=O)c2/C=C(\\C#N)C(=O)NCCCOC(C)C)cc1", "% Inhibition @ 10 uM": 2},
      {"compound": "Cc1ccc(C2OC3=C(C(=O)CC(C)(C)C3)C(N)=C2C#N)o1", "note": "(stereo not drawn)", "% Inhibition @ 10 uM": -4.67},
      {"compound": "COC(=O)C1=C(C)NC(=O)CC1c1cccnc1", "note": "(stereo not drawn)", "% Inhibition @ 10 uM": -3.63},
      {"compound": "O=S(=O)(c1ccccc1)c1nc(-c2ccc(Br)cc2)oc1N1CCOCC1", "% Inhibition @ 10 uM": -3.04},
      {"compound": "O=C(CN(c1cccc(Cl)c1)S(=O)(=O)c1ccccc1)Nc1ccccc1Cl", "% Inhibition @ 10 uM": -1.55},
      {"compound": "COc1cc(OC)c(C2C(C#N)=C(N)OC3=C2C(=O)CC(C)(C)C3)cc1OC", "note": "(stereo not drawn)", "% Inhibition @ 10 uM": 0.746},
      {"compound": "CC(=O)Nc1ccc(NC(=O)CN(c2ccccc2)S(C)(=O)=O)cc1", "% Inhibition @ 10 uM": 1.03},
      {"compound": "CCOC(=O)c1c(C)[nH]c(C)c1S(=O)(=O)N(Cc1ccccc1OC)C1CCN(C)CC1", "% Inhibition @ 10 uM": 2.58},
      {"compound": "CCCCOC(=O)Nc1nnc(C)s1", "% Inhibition @ 10 uM": -6.69},
      {"compound": "CC(C)C[C@H](NC(=O)N1CCN(C)CC1)C(=O)N[C@@H](CCc1ccccc1)C(=O)COc1ccccc1", "% Inhibition @ 10 uM": -0.778},
      {"compound": "N#Cc1c(NC(=O)CO/N=C/c2ccccc2)sc2c1CCCC2", "% Inhibition @ 10 uM": 3.25},
      {"compound": "Cc1ccnc(NS(=O)(=O)c2ccc3[nH]c4c(c3c2)CCCC4)c1", "% Inhibition @ 10 uM": -1.41},
      {"compound": "CCOC(=O)c1[nH]c2ccccc2c1C=O", "% Inhibition @ 10 uM": -0.256},
      {"compound": "CCOC(=O)C1=C(CN(Cc2ccco2)C2CCCC2)NC(=O)NC1c1cccc(OC)c1OC", "note": "(stereo not drawn)", "% Inhibition @ 10 uM": -1.3},
      {"compound": "COc1ccc(C2=NOC(C(=O)NCc3ccc(F)cc3)C2)cc1", "note": "(stereo not drawn)", "% Inhibition @ 10 uM": -1.7},
      {"compound": "CC1=C(C(=O)Nc2ccc(F)cc2F)C(c2ccc(N(C)C)cc2)C2=C(O)CC(C)(C)CC2=N1", "note": "(stereo not drawn)", "% Inhibition @ 10 uM": 1.82},
      {"compound": "Cc1coc2c(C)c3oc(=O)c(CCC(=O)NCc4ccccc4)c(C)c3cc12", "% Inhibition @ 10 uM": 8.61},
      {"compound": "CCOc1cc2c(cc1OCC)C(c1cc(OC)ccc1O)NCC2", "note": "(stereo not drawn)", "% Inhibition @ 10 uM": 0.475},
      {"compound": "C(=C\\c1ccccc1)/CSc1nc2ccccc2[nH]1", "% Inhibition @ 10 uM": 5.79},
      {"compound": "NC(=O)c1c(NS(=O)(=O)c2ccc(Br)cc2)sc2c1CCCCCC2", "% Inhibition @ 10 uM": 17.4},
      {"compound": "CC(Oc1ccccc1)C(=O)NCc1ccccn1", "note": "(stereo not drawn)", "% Inhibition @ 10 uM": -2.83},
      {"compound": "CCOC(=O)c1c(/N=C/C2C(=O)CC(C)(C)CC2=O)sc2c1CCCC2", "% Inhibition @ 10 uM": 5.3}
    ]}
  ]
}
